According to the supplement of paper PMC3334620:
In all, about 33,000 sequences were measured (“E-score (-0.5 to 0.5)”: median about -0.016, highest 2% from about 0.32 on). The list shows a part of the results.

Each sequence was assayed against T1, Stp1 (UniProt B3LFK1) (assay: PBM E-score (8-mer binding enrichment) (E-score (-0.5 to 0.5)); higher = stronger / more preferred TF binding; most listed sequences are background and not binding sites). Conditions: protein concentration: 200 nM; construct: GST-full length.
T1 sequence: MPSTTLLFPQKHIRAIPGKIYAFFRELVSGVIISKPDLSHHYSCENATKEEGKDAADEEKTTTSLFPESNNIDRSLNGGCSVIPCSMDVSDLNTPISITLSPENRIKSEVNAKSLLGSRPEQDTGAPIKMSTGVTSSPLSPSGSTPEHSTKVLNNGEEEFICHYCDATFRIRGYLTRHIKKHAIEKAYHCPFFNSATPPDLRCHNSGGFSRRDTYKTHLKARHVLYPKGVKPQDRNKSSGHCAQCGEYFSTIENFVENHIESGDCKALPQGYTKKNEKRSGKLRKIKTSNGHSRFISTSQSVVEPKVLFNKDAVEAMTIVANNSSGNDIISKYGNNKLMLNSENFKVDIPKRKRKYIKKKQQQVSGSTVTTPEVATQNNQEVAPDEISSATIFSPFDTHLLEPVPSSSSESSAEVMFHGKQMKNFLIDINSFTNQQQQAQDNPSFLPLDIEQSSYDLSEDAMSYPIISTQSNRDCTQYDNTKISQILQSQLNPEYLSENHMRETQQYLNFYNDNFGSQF
Outline: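 PURExpress in vitro transcription/translation supplied GST-tagged yeast transcription factors, either full-length or DNA-binding domain. Applied at about 100-200 nM to universal all-10-mer Agilent arrays double-stranded by primer extension, the bound protein was detected with fluorescent anti-GST. E-scores, modified Wilcoxon-Mann-Whitney statistics, were given by the Universal PBM Analysis Suite to ungapped eight-base words pooled with their reverse complements after masliner normalisation.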

| Sequence | PBM E-score |
| --- | --- |
| ATCGACGC | 0.00148 |
| GCGATACC | -0.162 |
| AGAACTGA | 0.157 |
| CCTTAGCA | 0.0632 |
| ATGGGGCG | 0.264 |
| TCTGGCCA | -0.147 |
| GCGCAAAA | 0.227 |
| AAATGTGG | 0.14 |
| ACTGGCAA | -0.108 |
| ACCGTAAA | 0.0391 |
| AAACGTAT | 0.214 |
| AGGTCGAC | -0.286 |
| AGGCGGCC | 0.147 |
| AGACCACC | -0.245 |
| ACTTGCAC | -0.0792 |
| GGACCCCC | -0.45 |
| GAGCGCGC | 0.237 |
| AAGTTCAT | 0.00541 |
| CACGTTGC | 0.093 |
| AGGGAGTA | -0.31 |
| GCTAGTTA | 0.0852 |
| AAGGGTAG | -0.207 |
| CCTTCAAG | 0.0118 |
| AGCACGAT | 0.118 |
| CATCCAAG | -0.181 |

| Sequence | PBM E-score |
| --- | --- |
| AGACCCCC | -0.393 |
| ATCTATTA | 0.0812 |
| ATGTATGG | -0.0194 |
| CCCCTGAA | -0.017 |
| AGCGCGGA | 0.0636 |
| CTTTGCCC | -0.0335 |
| ACGCACTA | -0.131 |
| CAGTCTGG | -0.218 |
| ATACGGGC | -0.0186 |
| ATACCGAA | 0.0551 |
| ATTCTATG | 0.194 |
| AGGATATG | 0.0335 |
| TGAACAAA | 0.267 |
| ACGAGCCC | -0.0928 |
| CAACTCAC | -0.0952 |
| GCAGAATA | 0.00751 |
| AGATTCCA | 0.14 |
| AGTACTAA | 0.0016 |
| AAGTTCCT | -0.117 |
| AGTCCGTC | -0.0184 |
| AAGACACG | 0.234 |
| CGTGGTTA | 0.0579 |
| CGAAAGCC | -0.0122 |
| CCGCCTTA | 0.201 |
| ACAATGCA | 0.163 |

| Sequence | PBM E-score |
| --- | --- |
| CAGGTTGG | -0.19 |
| CCGCACGG | 0.448 |
| ATGTTCAA | 0.131 |
| GAGGTATA | -0.0508 |
| TATATGAA | 0.18 |
| ACTGTTGA | -0.0391 |
| AGTATCTG | -0.107 |
| ACGATGCA | 0.0353 |
| ATAGTAGA | -0.0811 |
| GAATACGC | -0.0347 |
| ACCGTCAA | 0.0774 |
| CGTTCAGC | 0.00756 |
| CCACCTCC | -0.338 |
| ACTTCCGA | -0.0873 |
| AACTTGGA | 0.0205 |
| AGGCCCAC | -0.232 |
| AAGCCGAC | -0.11 |
| GAACATAA | -0.0127 |
| CGTCATAG | -0.0609 |
| TCACCGCA | -0.0824 |
| CCAGCTGG | -0.154 |
| GGGATGAC | -0.275 |
| AGGGCGAC | 0.015 |
| AACCGCGA | 0.174 |
| AGTAGTGC | 0.133 |

| Sequence | PBM E-score |
| --- | --- |
| AGCGCGTG | 0.0478 |
| GCGGAGAC | 0.00698 |
| ATGGCCGA | 0.0135 |
| GGCGGCAA | 0.286 |
| GCCTAAAC | -0.116 |
| CGGCCTGC | -0.125 |
| TCGGGTAA | -0.0421 |
| TGACACCA | -0.131 |
| ATTCCACG | -0.0103 |
| GCGAAGAA | 0.155 |
| GTGTCCTA | -0.0136 |
| GTGTCTGA | 0.0415 |
| CGGAAGCC | -0.0376 |
| GCAACATA | 0.147 |
| AGTGGCGA | 0.178 |
| ATGAGGTA | -0.146 |
| GACTAAGA | 0.00203 |
| AAGACGTA | -0.16 |
| AAGCGGAT | -0.0611 |
| CGGTTCAC | -0.216 |
| CTAAATTC | -0.0171 |
| TCCGCACA | 0.188 |
| ATAAAAAA | 0.206 |
| CGTGGCGA | 0.219 |
| CACTCCTA | -0.104 |

| Sequence | PBM E-score |
| --- | --- |
| GGGTACTA | 0.0651 |
| AACGTTAG | 0.0532 |
| GTTCGGCA | 0.226 |
| CGATCCAG | 0.0325 |
| CTTCTAAA | 0.168 |
| TAGACTGA | -0.112 |
| ATCAGTTA | 0.21 |
| CTTTTCTA | -0.169 |
| ACGATGAT | -0.188 |
| AGGTGGAT | -0.18 |
| TAATGGAA | 0.118 |
| CGAATCAC | -0.026 |
| AAGACCCC | -0.252 |
| AAAATACC | 0.179 |
| ACGCTGAG | 0.0067 |
| ACTCACCA | -0.21 |
| CTAAGAGC | -0.0921 |
| AACCTCGA | -0.0117 |
| AGAAGTGC | -0.069 |
| AATCAACC | -0.292 |
| AGCAAGCT | -0.296 |
| ATTTGAGA | -0.00713 |
| GTGTTCTA | 0.156 |
| ACGGCGTA | 0.448 |
| AAGGAACC | 0.111 |

| Sequence | PBM E-score |
| --- | --- |
| AAAAGTAT | 0.0476 |
| GTTATGTA | -0.0678 |
| AGCACCCT | -0.256 |
| CCTGTCAA | 0.0137 |
| ACTCAGGC | -0.121 |
| AGCGCCAG | 0.0101 |
| CTGAATGC | -0.0658 |
| ATCCATTG | 0.0495 |
| GGCATGGA | 0.169 |
| CGGGAGAC | -0.242 |
| GCTCGGGA | -0.174 |
| AACATATC | 0.142 |
| ATCCCGTG | 0.186 |
| AGGAGCTG | -0.222 |
| AAGGGCGA | -0.108 |
| CACACTCC | -0.217 |
| ACAGGGCG | 0.351 |
| TCCAGGGA | -0.197 |
| CCATGCCA | 0.148 |
| CAAGGTCA | -0.171 |
| ATTCTCGC | -0.133 |
| AGTGAAAG | 0.0498 |
| AAGTAATC | 0.164 |
| ATGTGTGA | -0.132 |
| ATCTTTCC | -0.119 |

| Sequence | PBM E-score |
| --- | --- |
| GATACGTA | -0.0548 |
| CCCGTTTC | 0.0615 |
| ATCTTGGC | -0.209 |
| GAACAGTC | -0.201 |
| AGAAAGAG | -0.217 |
| AGGTGCCC | -0.0256 |
| CAGGATAG | 0.111 |
| ATGAACAT | 0.105 |
| CAAACTAG | -0.107 |
| CATTACCC | -0.171 |
| CGTGATAG | 0.0581 |
| CGGTTACA | 0.0722 |
| CTAAACTA | -0.0468 |
| CATCGCCC | -0.0878 |
| CCAGACAC | -0.209 |
| CTCGGTCC | -0.164 |
| CGCCCAAG | -0.172 |
| TCGAATAA | 0.0883 |
| CACTCTCG | -0.0668 |
| AGGTAACG | -0.213 |
| AAGGGCGT | 0.0591 |
| CATTTTCG | 0.0976 |
